The results in this text go back to ChEMBL document CHEMBL4888484, “Replenishing the malaria drug discovery pipeline: Screening and hit evaluation of the MMV Hit Generation Library 1 (HGL1) against asexual blood stage Plasmodium falciparum ,using a nano luciferase reporter read-out” (2022).

In the test the test system is Plasmodium falciparum. Nature of the test: Primary screen in NF54 nanoGlo assay, in single point, at 2uM, 72h; a lower Z score goes with more inhibition. The class given is functional, Erythrocyte. The note with it: timepoint 72 hour.

The whole screen tested about 150,000 compounds, of which about 540 (0.36%) showed an effect of 50% or more. Some of the results follow.

With `COCCN(Cc1cc(Cl)ccc1OS(C)(=O)=O)C(=O)CC(C)(C)C`, the “% Inhibition” value is given as -3% and the Z score was 0.47.

In the case of `CC[C@H](C)N(CC(=O)N(Cc1cccn1Cc1ccccc1Cl)CC(C)C)C(=O)c1ccc(Br)cc1`, the “% Inhibition” value was found to be 1% and the Z score is given as -0.09.

Turning to `Cc1ccc(C(=O)N2CCC(COc3ccc(C(=O)N4CCOCC4)cc3)CC2)c(C)c1`, the “% Inhibition” value is on record as -8% and the Z score came out at 1.56.

Turning to `COc1ccc(N2CCN(C(=O)[C@@H]3CCCN3C3=NS(=O)(=O)c4ccccc43)CC2)cc1`, the “% Inhibition” value was -31% and the Z score is on record as 3.68.

For the molecule `c1ccc(Oc2ccnc(NCC34COCCN3CCOC4)n2)cc1`, the “% Inhibition” value was 41% and the Z score is recorded as -4.86.

In the case of `CC(=O)N1CCC(NC(=O)c2cnn3ncccc23)CC1`, the “% Inhibition” value is listed as -12% and the Z score amounted to 2.36.

On to `N[C@H]1C[C@H](c2nnc(CNCc3ccc4c(c3)CCCC4)n2C2CC2)C1`, for which the “% Inhibition” value is reported as -7% and the Z score turned out to be 1.05.

Turning to `Cn1ncc2c(c(-c3ccccc3)nn2Cc2ccccc2)c1=O`, the “% Inhibition” value is 1% and the Z score was -0.1.

Regarding `Cn1cc(C(NC(=O)Cc2ccc(F)c(Cl)c2F)[C@H]2C[C@H](O)C2)cn1` (some centres not stated), the “% Inhibition” value is on record as -9% and the Z score is 0.97.

On to `CO[C@@H]1C[C@@H](CO)N(C(=O)COCC2CC2)C1`, for which the “% Inhibition” value is -12% and the Z score is recorded as 1.46.

As for `Cn1nc(-c2ccccn2)cc1CNC(=O)NCc1cccs1`, the “% Inhibition” value is -11% and the Z score was 1.26.

Take `C[C@H]1CS(=O)(=O)N(c2ccc(C(=O)NCc3ccccc3)c(Cl)c2)C1=O`: the “% Inhibition” value was 5% and the Z score was -0.6.

In the case of `CN(Cc1cscn1)C(=O)c1cc2cc(C3(O)CCN(C4CCCCC4)CC3)ccc2o1`, the “% Inhibition” value is reported as 7% and the Z score is -0.94.

As to `NS(=O)(=O)c1ccc(CCNC(=O)C2(N3CCCC3)CCCCC2)cc1`, the “% Inhibition” value amounted to 7% and the Z score is listed as -1.31.

Turning to `COc1ccc(-c2n[nH]c(C3CC3)c2NC(=O)CC(C)C)cc1OC`, the “% Inhibition” value is reported as -13% and the Z score amounted to 1.23.

In the case of `O=C(NCCc1csc(-c2ccccc2)n1)[C@H]1CCCN1C(=O)c1ccccc1`, the “% Inhibition” value was -11% and the Z score turned out to be 1.42.

As to `Cc1cc(C)c(NC(=O)c2ncn3c2C(=O)N(C2CC2)[C@](C)(C(=O)NCc2ccc(F)cc2)C3)c(C)c1`, the “% Inhibition” value is -7% and the Z score amounted to 1.17.

`CC(=O)Nc1c(C)ccc(NC(=O)NCCCn2ccccc2=O)c1C`: the “% Inhibition” value is -16% and the Z score is listed as 2.14.

For the molecule `Cc1cc(S(=O)(=O)N[C@H]2COC[C@@H]2N2CCCC2)c(C)s1`, the “% Inhibition” value is reported as -1% and the Z score is 0.15.

In the case of `O=C1N[C@](O)(C(F)(F)F)C(=O)N1C1CCCCC1`, the “% Inhibition” value is given as -7% and the Z score is 1.13.

Take `CCc1ccc(OCC(=O)c2ccc3c(c2)N(Cc2nc(C(=O)NCC4CC4)co2)C(=O)CO3)cc1`: the “% Inhibition” value is listed as -12% and the Z score came to 1.56.

With `CCCc1nc(C)c(CNC(=O)CC2CCN(C(C)C)CC2)s1`, the “% Inhibition” value is listed as 3% and the Z score is given as -0.67.

As for `CC(C)(C)c1nnc2c(C#N)c(N)[nH]n2c1=O`, the “% Inhibition” value came to 29% and the Z score is -3.71.

Take `Cc1cc(OC2CN(C(=O)Cc3noc4ccccc34)C2)cc(=O)n1C1CC1`: the “% Inhibition” value is listed as -16% and the Z score is 1.78.

Turning to `C[C@@H](c1cnn(C)c1)N(C)CC(=O)Nc1ccnn1C1CCCC1`, the “% Inhibition” value is listed as -14% and the Z score came out at 2.03.

With `COC(=O)[C@@H]1C[C@H](O)CN1CC(C)c1ccc(F)cc1` (some centres not stated), the “% Inhibition” value is given as -3% and the Z score was 0.37.

Regarding `Cc1ccccc1-c1cc(C(=O)Nc2cccc3ccccc23)c2ccccc2n1`, the “% Inhibition” value is on record as -11% and the Z score is recorded as 1.49.

For the molecule `CCCC(NC(=O)NC1CCN(C)C1=O)c1ccccn1` (configuration not stated), the “% Inhibition” value came to 6% and the Z score is -0.84.

Take `COc1cccc(CN2C[C@]34C=C[C@H](O3)C(C(=O)N3CCCCCC3)C4C2=O)c1` (some centres not stated): the “% Inhibition” value is -9% and the Z score came to 1.02.

As to `O=C(O)CN1CCCCC(NC2CCOc3c(Br)cccc32)C1=O` (configuration not stated), the “% Inhibition” value came out at 1% and the Z score is -0.09.

As to `Cc1nc(C(C)C)nc(C)c1OCc1nc(C2CC2)no1`, the “% Inhibition” value is on record as -12% and the Z score is 2.09.

For `COC(=O)N1CCc2ccc(Br)cc2C1C(=O)NCC1CCCO1` (configuration not stated), the “% Inhibition” value is on record as -6% and the Z score is recorded as 1.1.

`COCC1(CNCc2cc(Cl)cc(OC)c2OC)CCC1`: the “% Inhibition” value is listed as -7% and the Z score was 1.41.

Regarding `CO[C@@H](C)C(=O)N(CC(=O)N1CCCCC1)c1ccc(C)cc1`, the “% Inhibition” value is recorded as -12% and the Z score came to 1.51.

For the molecule `O=C(NCCCNCc1cccnc1)c1cccc(F)c1Cl`, the “% Inhibition” value is -4% and the Z score was 0.52.

`CCC=C(C)C(=O)N1CCCC[C@@H]1CN`: the “% Inhibition” value is recorded as -1% and the Z score amounted to 0.06.

For `O=C(NC[C@H]1CCCN1c1nccs1)c1ccco1`, the “% Inhibition” value is listed as -16% and the Z score turned out to be 3.09.

Take `Cc1nc(O)nc(C)c1CCC(=O)NCc1oc2ccccc2c1C`: the “% Inhibition” value was -1% and the Z score is 0.24.

Consider `CC[C@H](C)[C@H](N)C(=O)OCc1ccccc1`, for which the “% Inhibition” value amounted to 1% and the Z score was -0.1.

As to `Cc1cnc(NC(=O)CCOCC(C)C)s1`, the “% Inhibition” value was -5% and the Z score worked out at 0.74.

On to `O=C(COc1cccc(Cl)c1)NC(C1CC1)C1CC1`, for which the “% Inhibition” value was found to be 4% and the Z score is -0.83.
